Reference: PubChem BioAssay AID485364 (National Center for Advancing Translational Sciences (NCATS), 2010)
About 11,000 (3.1%) of roughly 360,000 compounds were called active. This list was built around the results that the source calls inconclusive (neither active nor inactive); the mix of calls is not that of the screen. Calls come from the whole dose curve; as a rule, active = well fitted inhibition curve with a large enough effect; inconclusive = small, poorly fitted or top-dose-only effect; inactive = no such curve, though single readings can be large or run the other way. Potencies of inconclusive entries are left out as doubtful fits. Some structures have more than one record in an assay (separate samples or runs), and their calls can disagree.

target: Schistosoma mansoni thioredoxin glutathione reductase (TGR) (UniProt Q962Y6); assay: qHTS Assay for the Inhibitors of Schistosoma Mansoni Peroxiredoxins; settings: purified TGR, DTNB reduction, TNB absorbance 405 nm; activity change, negative = inhibition: at 114 µM (top of the series) unless noted; note: nearly all actives have a fitted effect of over 60% in size
Method in brief: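 Kinetic colorimetric format: TGR-catalysed, NADPH-driven DTNB reduction monitored via TNB absorbance. Enzyme dispensed at 20 nM; compound exposure 15 min at room temperature before reaction start.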
% is set by controls: 0 for no effect and ±100 for the full control effect; potency is the fitted concentration of half-maximal effect; tags give direction and shape of the fitted curve.

Row | SMILES | activity change, negative = inhibition | Potency
1 | CC(C)c1ccc(C2N=C(N)Nc3nc4ccccc4n32)cc1 (stereo not given) | inactive: 7.14% | 
2 | COC(=O)C(NC(C)=O)(Nc1sc2c(c1C(N)=O)CCCC2)C(F)(F)F (stereo not given) |  | inconclusive [inhibitor, single point]
3 | COc1ccc(C2N=C(c3ccccc3)C(C)(C)N2O)cc1 (stereo not given) | inactive: 11.2% | 
4 | O=C(CC1C(=O)OCCN1Cc1ccccc1)Nc1ccc(F)cc1 (stereo not given) |  | inconclusive [inhibitor, partial curve]
5 | O=C(CSc1nnc(-c2ccncc2)s1)Nc1ccc(Cl)c(C(=O)O)c1 | inactive: 1.14% | 
6 | COC(=O)c1sc2nc(C)nc(SCC(=O)Nc3sccc3C(N)=O)c2c1C | inactive: -4.26% | 
7 | Cc1nn(C)c(C)c1-c1c(C#N)c(N)nc2c1CCCCCC2 | inactive: 10.7% | 
8 | O=C(COc1ccccc1)NCCSCc1ccccc1Cl | inactive: 0% | 
9 | CC(C)CN(C(=O)CSc1nc(-c2ccccc2)cn1N)c1c(N)n(Cc2ccccc2)c(=O)[nH]c1=O |  | inconclusive [inhibitor, partial curve]
10 | c1ccc(-n2nnnc2NCCc2c[nH]c3ccccc23)cc1 |  | inconclusive [inhibitor, partial curve]
11 | Cc1cc2ncn(C(=O)c3c(-c4ccccc4Cl)noc3C)c2cc1C |  | inconclusive [inhibitor, full curve, poor fit]
12 | O=C(CCSc1nc(-c2ccco2)cc(C(F)(F)F)n1)N1CCN(c2ccccn2)CC1 |  | inconclusive [inhibitor, partial curve, poor fit]
13 | S=c1nc[nH]c2nc[nH]c12 |  | active: 15.8 µM
14 | O=C(N/N=C/c1ccc([N+](=O)[O-])o1)c1ccc2c(c1)OCO2 |  | inconclusive [inhibitor, partial curve]
15 | Cc1ccc2cc(C=C(C#N)C#N)c(Cl)nc2c1 |  | active: 2.82 µM
16 | O=C(CC1C(=O)OCCN1Cc1ccccc1)Nc1cccc(C(F)(F)F)c1 (stereo not given) |  | inconclusive [inhibitor, partial curve]
17 | Cc1cccc(NC(=S)NN2CCOCC2)c1C |  | inconclusive [inhibitor, partial curve]
18 | CCN(CC)S(=O)(=O)c1cccc(C(=O)N/N=C/c2ccc(O)c(O)c2O)c1 |  | inconclusive [inhibitor, partial curve]
19 | O=C(c1coc(=O)c(Br)c1)N1CCOCC1 |  | inconclusive [inhibitor, full curve]
20 | CC1CCCC(C)N1C(=O)COC(=O)Cc1ccc(Cl)cc1 (stereo not given) |  | inconclusive [inhibitor, partial curve]
21 | Oc1ccc(Cl)cc1C1=Nc2ccccc2N=C(c2cccc(Br)c2)C1 | inactive: -1.56% | 
22 | COC(=O)c1ccc(N2C(=O)CC(N3CCN(C(=O)c4ccco4)CC3)C2=O)cc1 (stereo not given) |  | inconclusive [inhibitor, partial curve]
23 | O=C(Cn1cc(SCc2ccc(C(F)(F)F)cc2)c2ccccc21)N1CCCC1 | inactive: 6.87% | 

Row | SMILES | activity change, negative = inhibition | Potency
24 | O=C(COC(=O)c1ccc(Cl)cc1O)NCCN1C(=O)CSC1=O | inactive: 53.7% | 
25 | O=C(C1=C[C@H](c2ccc3c(c2)OCO3)C[C@H](OCCCCO)O1)N1CCN(Cc2ccccc2)CC1 |  | active: 25.1 µM
26 | Cc1cc(C)c(C#N)c(SCc2[nH]nc3c2C(c2ccc(F)cc2)C(C#N)=C(N)O3)n1 (stereo not given) | inactive: -34.1% | 
27 | Cc1sc2nc(CSC(C)C(=O)Nc3cc(S(C)(=O)=O)ccc3Cl)[nH]c(=O)c2c1C (stereo not given) |  | inconclusive [inhibitor, partial curve]
28 | CCN(CC)c1ccc(NS(=O)(=O)c2ccc(-c3ccc(=O)[nH]n3)o2)c(C)c1 |  | inconclusive [inhibitor, full curve, poor fit]
29 | COc1ccccc1N1CCN(C(c2ccc(N(C)C)cc2)c2nnnn2CCc2ccccc2)CC1 (stereo not given) |  | active: 39.8 µM
30 | COc1ccc(C(C)=O)cc1Cn1nc(C)c([N+](=O)[O-])c1C | inactive: 2.24% | 
31 | COC(=O)C1=C(c2c(C)noc2C)C[C@@H]2CC[C@H]1N2C(=O)N1CCOCC1 |  | active: 50.1 µM
32 | Cc1cc(NS(=O)(=O)c2ccc(NC(=S)NC(=O)/C=C/c3ccccc3)cc2)no1 |  | inconclusive [inhibitor, partial curve]
33 | CN(C)c1cc(O)c(C(=S)Nc2ccccc2)c(N(C)C)c1 |  | inconclusive [inhibitor, full curve, poor fit]
34 | CCOc1ccc(-c2nc(CSCC(=O)N3CCN(c4cccc(OC)c4)CC3)c(C)o2)cc1 |  | inconclusive [inhibitor, partial curve]
35 | CC(=O)Nc1ccc(NC(=O)CCNS(=O)(=O)c2cccc3nsnc23)cc1 |  | inconclusive [inhibitor, partial curve]
36 | COc1ccc(CC(=O)n2[nH]c(=O)cc(C)c2=O)cc1OC |  | active: 22.4 µM
37 | COc1ccc(NC2C=CS(=O)(=O)C2)c(OC)c1 (stereo not given) |  | inconclusive [inhibitor, single point]
38 | C/C(=C\c1ccco1)C1C(C#N)=C(N)Oc2n[nH]c(-c3ccccc3)c21 (stereo not given) |  | inconclusive [inhibitor, single point]
39 | NC(=O)C1CCN(c2nc(-c3ccc4occc(=O)c4c3)cs2)CC1 |  | inconclusive [inhibitor, full curve]
40 | CCOc1ccc(N(CCCCO)C(=S)NC(=O)c2ccc(C)c(Br)c2)cc1 |  | inconclusive [inhibitor, full curve, poor fit]
41 | CCCSc1nnc(NC(=O)CSc2sc3c(O)cc(=O)[nH]c3c2C#N)s1 |  | active: 39.8 µM
42 | CCOc1ccc(CCNC(=O)CS(=O)Cc2nc(-c3ccc(C)cc3)oc2C)cc1 (stereo not given) |  | active: 22.4 µM
43 | C=COCCn1c(C)c(C(C)=O)c2cc(O)ccc21 |  | inconclusive [inhibitor, partial curve, poor fit]
44 | CCOc1ccc(C2C(C#N)=C(N)N(c3sc4c(c3C#N)CCCC4)C3=C2C(=O)CCC3)cc1 (stereo not given) |  | inconclusive [inhibitor, partial curve, poor fit]
45 | CC(=O)c1cccc(NC(=O)NC2CCCc3ccccc32)c1 (stereo not given) | inactive: 8.11% | 
